Source: PubChem BioAssay AID463173 (ICCB-Longwood Screening Facility, Harvard Medical School, 2010)
The whole screen tested about 52,000 compounds, of which about 1,700 (3.3%) were called active. Cut-off read from the data, not from the text of the source: active = survival mostly below about 52% (no sharp cut-off); inactive = mostly above about 56%. This is one part of the list.

Each compound was assayed on Wild type (assay: S. aureus survival, RN4220 and DeltatarO strains – OD600, teichoic acid synthesis inhibitors, primary screen (AID 463173)). Details: S. aureus RN4220 wild type/DeltatarO growth, OD600, 18 h, hits give low values, screened at 18.75 µg/mL (by protocol).

Compound	survival
CCCc1c(O)nc(SCC(=O)N2CCCCC2)[nH]c1=O	inactive: 103%
CCOc1ccccc1NC(=O)CCNS(=O)(=O)c1ccc2c(c1)CCN2C(=O)C1CC1	inactive: 81%
CCCCS(=O)CC(O)CSc1nc(-c2ccc(OC)cc2)cc(-c2ccccc2)c1C#N (configuration not stated)	inactive: 76%
Cc1ccc(/C=C/c2onc(C)c2S(=O)(=O)N2CCC(C(=O)NCc3ccc(N(C)C)cc3)CC2)cc1	inactive: 80%
COc1ccc(NC(=O)CN(c2ccc(C)cc2)S(=O)(=O)c2cccs2)cc1OC	inactive: 80%
Cc1ccc(OCCCC(=O)Nc2sc3c(c2C(N)=O)CCCC3)cc1	inactive: 57%
Cn1ncc2c(N3CCN(c4ccccc4Cl)CC3)ncnc21	inactive: 127%
CCCCN(C)C(=O)Cn1ncc2c([nH]c3ccc(C)cc32)c1=O	inactive: 81%
Fc1ccccc1N1CCN(c2c3c(nc4nncn24)CCC3)CC1	inactive: 86%
CCC(Sc1nnc(-c2ccc(OC)cc2)c(-c2ccc(OC)cc2)n1)C(=O)Nc1cccc(OC)c1 (configuration not stated)	inactive: 74%
Cc1cc(C)cc(NC(=O)c2cccc(N3CCCS3(=O)=O)c2)c1	inactive: 70%
COc1ccccc1NC(=O)c1sc2nc(-c3cc4ccccc4oc3=O)[nH]c(=O)c2c1C	inactive: 116%
O=C(CSc1n[nH]c(-c2ccccc2)n1)c1cccs1	inactive: 115%
COc1ccc(C(=O)N/C(=C\c2cn(S(=O)(=O)N(C)C)c3ccccc23)C(=O)NCCCn2ccnc2)cc1	inactive: 93%
O=C(CSc1nnc(-c2ccccc2F)o1)N1CCc2ccccc21	inactive: 86%
O=C(Cc1ccc(Cl)cc1)NCC(c1cccs1)S(=O)(=O)c1ccc(Cl)cc1 (configuration not stated)	inactive: 58%
Cc1cccc(C(=O)Nc2nnc(SCc3cc(=O)n4cccc(C)c4n3)s2)c1	inactive: 71%
CN(Cc1ccccc1)C(=O)C1CCN(Cc2cc3ccccc3n2Cc2ccccc2)CC1	inactive: 71%
Cc1cccc(NC(=O)c2c(NC(=O)c3ccco3)sc3c2CCC(C(C)(C)C)C3)c1 (configuration not stated)	inactive: 82%
CCOC(=O)c1c(C)[nH]c(CCC(=O)Nc2cc(C)cc(C)c2)c1C	inactive: 126%
O=C(Cn1nc(C(F)(F)F)c2c1CCCC2)Nc1ccc(Cl)cc1	inactive: 69%
Cc1ccc(-n2c3c(cc(-c4nc(-c5ccc(Cl)cc5)cs4)c2=O)C(=O)CC(C)(C)C3)cc1	inactive: 80%

Compound	survival
COc1cc(OC)cc(C(=O)Nc2ccc(S(=O)(=O)Nc3onc(C)c3C)cc2)c1	inactive: 86%
COc1cccc(CNC(=O)CN2C(=O)CCn3nc(-c4cn(C)c5ccccc45)cc32)c1OC	inactive: 67%
Cc1ccc(C(=O)N2C(C)CCCC2C)c(Cl)c1 (configuration not stated)	inactive: 118%
CCOC(=O)c1cccc(NC(=O)c2cc(-c3ccc(Cl)s3)nc3ccccc23)c1	inactive: 112%
CN=CC1=C(O)C(C(=O)OC)C(C)(C)CC1=O (configuration not stated)	inactive: 105%
CCc1ccc(N2C(=O)CSC23C(=O)N(Cc2cccc(F)c2)c2ccccc23)cc1 (configuration not stated)	inactive: 146%
COc1ccc(NC(=O)Cn2ncc3c([nH]c4ccccc43)c2=O)cc1Cl	inactive: 73%
CCN(CC)CCCNC(=O)c1cn(C)c2ccc(S(=O)(=O)N3CCOCC3)cc2c1=O	inactive: 84%
Cc1ccc(NC(=O)CSc2nc(C)cc(C)c2C(=O)Nc2cccc(C)c2)cc1	inactive: 79%
O=C(NCCc1ccccc1)c1ccc(CSc2nc3ccncc3n2Cc2ccccc2)cc1	inactive: 85%
COc1ccccc1OCc1nnc(SCC(=O)N(C)C)o1	inactive: 99%
Cn1c(CNc2nc(-c3ccccc3)cs2)nnc1SCC(=O)c1ccccc1	inactive: 107%
COc1ccc(Br)cc1CNC(=O)CN1C(=O)CSc2ccc(S(=O)(=O)N3CCOCC3)cc21	inactive: 70%
Cc1ccc(NC(=O)c2cc3c(=O)n(Cc4cccnc4)ccc3nc2C)cc1F	inactive: 79%
Cc1cc(C(F)F)n2nc(C(=O)Nc3ccc(C)c(C)c3)nc2n1	inactive: 102%
CCC(C(=O)NCc1ccccc1)n1ncn2c(cc3occc32)c1=O (configuration not stated)	inactive: 90%
CCC(=O)N1CCN(c2ccc(NC(=O)c3ccccc3)cc2)CC1	inactive: 99%
CCOC(=O)c1ccc2ncc(C(=O)OCC)c(Nc3ccc(C)c(Br)c3)c2c1	inactive: 72%
Cc1cccc(C(=O)Nc2cccc(C(=O)OCc3cc(=O)n4ccsc4n3)c2)c1	inactive: 87%
CN(C)c1ccc(/C=C(/NC(=O)c2ccccc2)C(N)=O)cc1	inactive: 106%
COc1ccc(OC(C)C(=O)NCc2nc(-c3ccc(Cl)cc3)no2)cc1 (configuration not stated)	inactive: 83%
COc1ccccc1NC(=O)C1=C(C)Nc2ncnn2C1c1ccccn1 (configuration not stated)	inactive: 69%

Compound	survival
COc1ccc(N2CC(C(=O)NC3=NCCS3)CC2=O)cc1 (configuration not stated)	inactive: 102%
O=c1c2oc3ccccc3c2n(Cc2cccc(C(F)(F)F)c2)c(=O)n1Cc1ccc2c(c1)OCO2	inactive: 119%
CC(C)Sc1ncc(Cl)c(C(=O)Nc2ccc(S(=O)(=O)N3CCCCC3C)cc2)n1 (configuration not stated)	inactive: 114%
COc1ccc(OC)c(CNC(=O)c2cccc(NC(=O)N3CCSc4ncccc43)c2)c1	inactive: 68%
CCOc1ccccc1N(C)C(=O)NCc1noc2ccccc12	inactive: 110%
CCn1cc(C(=O)NC(C)c2ccccc2)c(=O)c2cc(S(=O)(=O)N3CCc4ccccc4C3)ccc21 (configuration not stated)	inactive: 88%
O=C(N/N=C/c1ccc(O)cc1)Nc1cccc2nsnc12	inactive: 123%
Cc1ccc(-n2nc(C)c3nc(CCC(=O)Nc4ccc(F)cc4)c(=O)n(C)c32)cc1	inactive: 80%
CCOc1ccccc1NS(=O)(=O)c1ccc2oc(=O)c3ncn(C)c3c2c1	inactive: 90%
Cc1ccc(NC(=O)Cn2cc(S(=O)(=O)N3CCCC3)c(S(=O)(=O)N3CCCC3)c2)c(C)c1	inactive: 71%
O=C(O)CN1C(=O)c2ccc(Oc3ccc4c(c3)C(=O)N(CC(=O)O)C4=O)cc2C1=O	inactive: 109%
c1cc(N2CCOCC2)ccc1Nc1nc2nonc2nc1Nc1ccc(N2CCOCC2)cc1	inactive: 114%
COc1ccc(C(=O)c2cn(CC(=O)Nc3ccc4c(c3)OCO4)c3ccc(OC)cc3c2=O)cc1	inactive: 80%
O=C(c1cccnc1Nc1cccc(Cl)c1)N1CCCCC1	inactive: 117%
O=C(NCCc1ccc(Cl)cc1)c1cccn1-c1nnc(N2CCCC2)s1	inactive: 130%
C=CCNC(=O)CN1C(=O)COc2ccccc21	inactive: 105%
CCc1ccccc1NC(=O)c1cc(S(=O)(=O)NC2CCCC2)ccc1F	inactive: 85%
COc1ccc(C(=O)N2CCC(C(=O)Nc3ccccc3Cl)CC2)cc1	inactive: 92%
Cc1cccc(NC(=O)CSc2nc3c([nH]c4ccccc43)c(=O)n2-c2ccc(F)cc2)c1C	inactive: 22%
COc1ccc(-n2nc(C(=O)N3CCN(c4cccc(C)c4)C(C)C3)c3c4ccccc4n(C)c3c2=O)cc1 (configuration not stated)	inactive: 87%
CCCn1ccc2c(OCC(=O)Nc3ccc(F)cc3F)cccc2c1=O	inactive: 81%
Cc1cccc(OCC(=O)Nc2ccc3c(c2)N(C)C(=O)c2ccccc2S3)c1	inactive: 69%

Compound	survival
Cc1ccc(C(=O)N/C(=C\c2cn(S(=O)(=O)N(C)C)c3ccccc23)C(=O)NCCCn2ccnc2)cc1	inactive: 73%
COc1ccc(NC(=O)c2ccco2)cc1NC(=O)COc1ccccc1Cl	inactive: 111%
O=C(Cc1cccs1)NC1CCCCCC1	inactive: 114%
COc1ccc(CN2CCCN(CC(=O)Nc3ccc4c(c3)OCCO4)S2(=O)=O)cc1	inactive: 81%
CCOC(=O)Cn1c(=O)sc2ccccc21	inactive: 116%
COc1ccccc1CNC(=O)CCCn1c(=O)c2ccccc2n(Cc2ccc(C)cc2)c1=O	inactive: 129%
COc1ccc(C2CC(=O)N(CC(=O)Nc3cccc(C)c3C)c3ccccc3S2)cc1OC (configuration not stated)	inactive: 91%
Cc1ccc(C(=O)N2CCC(C(N)=O)CC2)cc1NC(=O)c1nsc2ccccc12	inactive: 72%
CCOC(=O)C1CCN(C(=O)c2nn(-c3ccc(OC)cc3)c(=O)c3c2c2ccccc2n3C)CC1	inactive: 73%
Cc1ccc(Sc2ccc(N3CCCC(C(=O)Nc4ccc(F)cc4F)C3)nn2)cc1 (configuration not stated)	inactive: 51%
Cc1nc(C)c(C(=O)N/N=C/c2ccc(O)cc2O)cc1C(=O)N/N=C/c1ccc(O)cc1O	inactive: 108%
COc1ccc(N(CC(=O)NCCc2ccc(Cl)cc2)S(=O)(=O)c2c(C)nn(C)c2C)cc1	inactive: 71%
Cc1ccc(CSc2nc3cccnc3n2Cc2ccc(C(=O)NCCc3cccs3)cc2)cc1	inactive: 131%
Cc1nn(C)c2c1c(C(F)(F)F)cc(=O)n2CC(=O)N1CCC(C)CC1	inactive: 68%
CC1CCN(S(=O)(=O)c2cc(C(=O)N3CCN(c4ccccc4F)CC3)n(C)c2)CC1	inactive: 65%
Cc1ccc(-c2noc(-c3nnn(CC(=O)Nc4cc(Cl)ccc4C)c3N)n2)cc1	inactive: 59%
CCCC(=O)N1CCCC(c2nc(-c3ccc(OC)cc3)no2)C1 (configuration not stated)	inactive: 106%
CCC1CN(C(=O)C2CCN(S(=O)(=O)c3c(C)noc3/C=C/c3ccccc3F)CC2)c2cc(C)ccc2O1 (configuration not stated)	inactive: 84%
COc1ccc(NC(=O)c2oc3ccccc3c2NC(=O)Cc2cccs2)c(OC)c1	inactive: 115%
COc1ccc(CNC(=O)C(C)n2c(=O)cc(C)c3c(C)nn(-c4ccccc4)c32)cc1 (configuration not stated)	inactive: 70%
COCCN1CCN(Cc2ccc(C(=O)NC(C)C)cc2)C(=O)C1=O	inactive: 91%
